Experimental data as given in the supplement of paper PMC4166925.
± gives the standard deviation of the averaged measurements. Whole data set: some 33,000 sequences, median “E-score (dimensionless, -0.5 to 0.5)” near -0.049, cut for the highest 2% near 0.37. The list shows a part of the results.

system: T1, PmTbr T-box DNA-binding domain (GST fusion); experiment: PBM E-score of 8-mer (E-score (dimensionless, -0.5 to 0.5)); Tbr is Tbrain of the sea star Patiria miniata (Pm) or the sea urchin Strongylocentrotus purpuratus (Sp); higher = stronger binding preference; most listed sequences are background and not binding sites; details: the construct has about 5 more residues each side
T1 sequence: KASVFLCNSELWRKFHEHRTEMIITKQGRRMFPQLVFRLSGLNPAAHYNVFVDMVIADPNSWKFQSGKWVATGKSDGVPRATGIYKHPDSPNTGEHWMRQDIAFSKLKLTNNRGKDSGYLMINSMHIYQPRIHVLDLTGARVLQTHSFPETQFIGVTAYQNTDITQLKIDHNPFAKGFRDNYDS
Protocol: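 Universal protein-binding microarray (Agilent AMADID 016060, 60-bp probes with a 35-bp variable region) incubated with 200 nM GST-fused Patiria miniata Tbr T-box DNA-binding domain (residues 272-466) in PBS pH 7.5. Scored for every ungapped 8-mer (given with its reverse complement) by the Universal PBM Analysis Suite as E-score (modified Wilcoxon-Mann-Whitney enrichment, range -0.5 to 0.5; >0.45 counts as bound) and Z-score of median probe intensity. Two replicate arrays (datasets 1 and 2).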
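Note: 200 nM protein in PBS on universal arrays averaged over duplicate arrays.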

| Sequence | PBM E-score of 8-mer |
| --- | --- |
| AAGATTAG | -0.125 ± 0.036 |
| AAACTCCC | -0.161 ± 0.07 |
| ATTTTCGA | -0.176 ± 0.098 |
| GATGTCCC | -0.208 ± 0.02 |
| GCCTTAGC | 0.211 ± 0.024 |
| GTGGTCTA | -0.211 ± 0.027 |
| CCTAACCC | -0.127 ± 0.05 |
| AACTAGAA | -0.000525 ± 0.0071 |
| GTCAGGAC | -0.000415 ± 0.072 |
| ACGATGCT | 0.0361 ± 0.088 |
| ACACCGTC | 0.32784 ± 8.5e-05 |
| AGCGCCCG | 0.0811 ± 0.037 |
| CTAGTAGA | -0.0181 ± 0.012 |
| CACGGCCC | 0.0295 ± 0.02 |
| CTTGGGAA | -0.0378 ± 0.031 |
| AATAGAAC | -0.102 ± 0.035 |
| GCGTTGAA | 0.143 ± 0.026 |
| CAGTTGAC | 0.212 ± 0.076 |
| CCGCGCCA | 0.0276 ± 0.0065 |
| AACCGCGT | 0.00231 ± 0.048 |
| CACGTTCG | 0.234 ± 0.019 |
| CTAGGAGA | -0.123 ± 0.014 |

| Sequence | PBM E-score of 8-mer |
| --- | --- |
| ATACAAAC | -0.136 ± 0.0033 |
| CACAGGTC | 0.15 ± 0.028 |
| ATAGGCCG | -0.138 ± 0.03 |
| GTACTTAA | -0.16 ± 0.011 |
| CCCCTAAG | -0.0688 ± 0.042 |
| GAATTGGA | 0.0194 ± 0.0076 |
| CGTTGCCC | -0.109 ± 0.014 |
| CATGAACC | -0.0747 ± 0.069 |
| CACGTAGC | 0.125 ± 0.054 |
| TGACTCCA | -0.253 ± 0.061 |
| TTAATAAA | -0.182 ± 0.079 |
| GTAATGGA | -0.128 ± 0.016 |
| GACCATGC | -0.0781 ± 0.035 |
| AAGACTTC | -0.0693 ± 0.0056 |
| CCGTCAGG | 0.184 ± 0.035 |
| CCGATACG | -0.232 ± 0.019 |
| ACTCCTGG | 0.13 ± 0.079 |
| GGCGCCGA | 0.146 ± 0.08 |
| AACGAACA | -0.0901 ± 0.0097 |
| AGCCTGCC | -0.0173 ± 0.019 |
| TCCAAAAA | -0.158 ± 0.061 |
| CAACGTCA | 0.0459 ± 0.035 |

| Sequence | PBM E-score of 8-mer |
| --- | --- |
| GAGACCGA | -0.0758 ± 0.029 |
| AGTGACCG | -0.0399 ± 0.021 |
| GCCTAGGC | -0.0856 ± 0.14 |
| ACGTCTAG | -0.118 ± 0.028 |
| CCTGGCTC | -0.0752 ± 0.086 |
| ACTCACGG | 0.0497 ± 0.064 |
| CCGACGAA | 0.0364 ± 0.0036 |
| ACCGTGGA | 0.0623 ± 0.014 |
| CAGTAAGA | -0.152 ± 0.0051 |
| AGTGGTGC | 0.141 ± 0.044 |
| AGGTGAGC | 0.303 ± 0.042 |
| ACCCCCTG | 0.0477 ± 0.028 |
| GCCTGACC | -0.0775 ± 0.032 |
| GTCAACCA | 0.0402 ± 0.067 |
| ATGACGAC | 0.15 ± 0.029 |
| CGTCATTA | -0.079 ± 0.066 |
| AACCAACA | 0.0696 ± 0.053 |
| CGTTTATC | 0.158 ± 0.03 |
| ATCATCCC | -0.119 ± 0.03 |
| ACTAAACA | 0.0222 ± 0.01 |
| ATAGTGGG | -0.0524 ± 0.0065 |
| ACCACGCG | 0.1217 ± 0.0011 |

| Sequence | PBM E-score of 8-mer |
| --- | --- |
| CGCGTGGA | 0.148 ± 0.055 |
| CGTGGCAG | 0.00281 ± 0.052 |
| GTTAGGGA | -0.0525 ± 0.1 |
| GGATCTGA | -0.208 ± 0.0052 |
| ACCCTGAC | 0.106 ± 0.017 |
| ATTCGTCA | 0.262 ± 0.0094 |
| AGTATCTA | -0.127 ± 0.0036 |
| CCTTAGGC | -0.0445 ± 0.043 |
| AGTGTGCG | 0.222 ± 0.014 |
| ACGATTCC | 0.101 ± 0.02 |
| ATGGTGTC | 0.383 ± 0.02 |
| ATGGTATC | -0.126 ± 0.02 |
| GTTATTGA | -0.00208 ± 0.026 |
| CAATGGGA | -0.147 ± 0.033 |
| CGCCTAGA | 0.072 ± 0.015 |
| CATAGGCA | -0.278 ± 0.051 |
| GGGAAGTA | -0.149 ± 0.047 |
| TCCCCGAA | -0.125 ± 0.0032 |
| GGTCCTAA | -0.119 ± 0.018 |
| CAATCGCA | 0.14 ± 0.014 |
